# Experimental data taken from the supplement of paper PMC7580552.
# Structures can show the parent of a compound that is named as a salt. This is one part of the list. Repeats are few or missing, and single values can be far off.
# Test system: Escherichia coli W3110
# Assay: planktonic growth (OD600) relative to untreated control; higher = more growth
# Conditions: 10 µM; 20-24 h; 30 °C; TB
# 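Further: stationary (unshaken) cultures in 96-well plates, started at OD600 0.05 from mid-exponential cells, with compounds supplied from DMSO stocks.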
row,SMILES,planktonic growth
1,Clc1ccc(CSC(Cn2ccnc2)c2ccc(Cl)cc2Cl)cc1 (centres undefined) [Sulconazole nitrate],105%
2,N=C(N)NC(=O)Cc1c(Cl)cccc1Cl [Guanfacine hydrochloride],95%
3,COc1ccc2[nH]c([S+]([O-])Cc3ncc(C)c(OC)c3C)nc2n1 (centres undefined) [Tenatoprazole],98%
4,CN(C)CCOC(c1ccccc1)c1ccccc1 [Diphenhydramine hydrochloride],92%
5,NC(Cc1cc(I)c(Oc2cc(I)c(O)c(I)c2)c(I)c1)C(=O)O (centres undefined) [Thyroxine (L)],107%
6,CN(C)CC/C=C1/c2ccccc2Sc2ccc(Cl)cc21 [Chlorprothixene hydrochloride],96%
7,CC(=O)[C@H]1CC[C@H]2[C@@H]3CCC4=CC(=O)CC[C@]4(C)[C@H]3CC[C@]12C [Progesterone],96%
8,CCCN(CCC)S(=O)(=O)c1ccc(C(=O)O)cc1 [Probenecid],91%
9,C[C@]12CC[C@@H]3c4ccc(O)cc4CC[C@H]3[C@@H]1CC[C@@H]2O [Estradiol-17 beta],105%
10,CCC1(c2ccccc2)NC(=O)N(C)C1=O (centres undefined) [Mephenytoin],95%
11,CCc1c(C)[nH]c2c1C(=O)C(CN1CCOCC1)CC2 (centres undefined) [Molindone hydrochloride],94%
12,Cc1ncc(CO)c(CO)c1O [Pyridoxine hydrochloride],98%
13,CC1(C)[C@H](C(=O)O)N2C(=O)C[C@H]2S1(=O)=O [Sulbactam],110%
14,N=C(N)NS(=O)(=O)c1ccc(N)cc1 [Sulfaguanidine],105%
15,CC(=O)Oc1ccccc1C(=O)O [Acetylsalicylic acid],104%
16,NC(=O)c1cc[n+](CC2=C(C(=O)[O-])N3C(=O)[C@@H](NC(=O)[C@@H](c4ccccc4)S(=O)(=O)O)[C@H]3SC2)cc1 [Cefsulodin sodium salt],93%
17,CC1=C(/C=C/C(C)=C/C=C/C(C)=C/C(=O)O)C(C)(C)CCC1 [Retinoic acid],90%
18,Clc1ccc(Cn2c(CN3CCCC3)nc3ccccc32)cc1 [Clemizole hydrochloride],95%
19,COc1cc2nc(N(C)CCCNC(=O)C3CCCO3)nc(N)c2cc1OC (centres undefined) [Alfuzosin hydrochloride],102%
20,CC(=O)O[C@]1(C(C)=O)CC[C@H]2[C@@H]3C=C(Cl)C4=CC(=O)[C@@H]5C[C@@H]5[C@]4(C)[C@H]3CC[C@@]21C [Cyproterone acetate],95%
21,Clc1ccc(CO/N=C(\Cn2ccnc2)c2ccc(Cl)cc2Cl)c(Cl)c1 [Oxiconazole Nitrate],104%
22,C#C[C@]1(OC(C)=O)CC[C@H]2[C@@H]3CCC4=CC(=NO)CC[C@@H]4[C@H]3CC[C@@]21CC (mixture of isomers) [Norgestimate],99%
23,O=C(O)COCCN1CCN(C(c2ccccc2)c2ccc(Cl)cc2)CC1 (centres undefined) [Cetirizine dihydrochloride],93%
24,N[C@@H]1CONC1=O [D-cycloserine],101%
25,CN(C)/N=N/c1[nH]cnc1C(N)=O [Dacarbazine],89%

row,SMILES,planktonic growth
1,CC[N+](C)(C)Cc1ccccc1Br [Bretylium tosylate],97%
2,C[N+](C)(C)CCCCCC[N+](C)(C)C [Hexamethonium dibromide dihydrate],99%
3,CN1C(C)(C)CCCC1(C)C [Pempidine],112%
4,Cc1onc(-c2c(Cl)cccc2Cl)c1C(=O)N[C@@H]1C(=O)N2[C@@H]1SC(C)(C)[C@@H]2C(=O)O [Dicloxacillin sodium salt hydrate],82%
5,CCOC(=O)[C@H](CCc1ccccc1)N[C@@H](C)C(=O)N1Cc2ccccc2C[C@H]1C(=O)O [Quinapril hydrochloride],108%
6,CC(CCc1ccccc1)NCC(O)c1ccc(O)c(C(N)=O)c1 (centres undefined) [Labetalol hydrochloride],92%
7,O=C(O)c1cccnc1Nc1cccc(C(F)(F)F)c1 [Niflumic acid],77%
8,Cc1oncc1C(=O)Nc1ccc(C(F)(F)F)cc1 [Leflunomide],95%
9,COc1ccc(C(Cl)=C(c2ccc(OC)cc2)c2ccc(OC)cc2)cc1 [Chlorotrianisene],102%
10,COC(=O)Nc1nc2cc(C(=O)c3ccccc3)ccc2[nH]1 [Mebendazole],89%
11,CC(C)c1ccc2oc3nc(N)c(C(=O)O)cc3c(=O)c2c1 [Amlexanox],111%
12,CC1(C)S[C@@H]2[C@H](NC(=O)[C@H](NC(=O)N3CCNC3=O)c3ccccc3)C(=O)N2[C@H]1C(=O)O [Azlocillin sodium salt],48%
13,NCCNCCNCCNCCN [Tetraethylenepentamine pentahydrochloride],80%
14,Cc1cc2c(cc1S(N)(=O)=O)S(=O)(=O)CCC2 [Meticrane],91%
15,COC(c1ccccc1)(c1ccccc1)[C@H](Oc1nc(C)cc(C)n1)C(=O)O [Ambrisentan],102%
16,Cc1c(C)c2c(c(C)c1O)CCC(C)(COc1ccc(CC3SC(=O)NC3=O)cc1)O2 (centres undefined) [Troglitazone],96%
17,CC(C(=O)O)c1ccc2c(c1)Cc1cccnc1O2 (centres undefined) [Pranoprofen],121%
18,CSc1ccc2c(c1)C(N1CCN(C)CC1)Cc1ccccc1S2 (centres undefined) [Methiothepin maleate],99%
19,Cc1cc(C(C)(C)C)c(O)c(C)c1CC1=NCCN1 [Oxymetazoline hydrochloride],91%
20,CN(C)CCCN1c2ccccc2Sc2ccccc21 [Promazine hydrochloride],98%
21,NS(=O)(=O)c1cc(C(=O)O)cc(N2CCCC2)c1Oc1ccccc1 [Piretanide],105%
22,CC(C)(C(=O)O)c1ccc(C(O)CCCN2CCC(C(O)(c3ccccc3)c3ccccc3)CC2)cc1 (centres undefined) [Fexofenadine hydrochloride],100%
23,COc1ccc([C@@H]2CC(=O)c3c(O)cc(O[C@@H]4O[C@H](CO[C@@H]5O[C@@H](C)[C@H](O)[C@@H](O)[C@H]5O)[C@@H](O)[C@H](O)[C@H]4O)cc3O2)cc1O [Hesperidin],103%
24,C[N+]1(CCCCC[N+]2(C)CCCC2)CCCC1 [Pentolinium bitartrate],92%
